# Among all 310,000 compounds or so, about 2,200 (0.71%) showed an effect of 50% or more. Effects have a minus sign here. The list shows a part of the results.
# Molecular target: human ether-à-go-go-related gene (hERG) potassium channel (human, UniProt Q12809)
# Assay: primary screen, population patch clamp on CHO cells stably expressing hERG
# Chain of human ether-à-go-go-related gene (hERG) potassium channel (Q12809 whole entry, looked up): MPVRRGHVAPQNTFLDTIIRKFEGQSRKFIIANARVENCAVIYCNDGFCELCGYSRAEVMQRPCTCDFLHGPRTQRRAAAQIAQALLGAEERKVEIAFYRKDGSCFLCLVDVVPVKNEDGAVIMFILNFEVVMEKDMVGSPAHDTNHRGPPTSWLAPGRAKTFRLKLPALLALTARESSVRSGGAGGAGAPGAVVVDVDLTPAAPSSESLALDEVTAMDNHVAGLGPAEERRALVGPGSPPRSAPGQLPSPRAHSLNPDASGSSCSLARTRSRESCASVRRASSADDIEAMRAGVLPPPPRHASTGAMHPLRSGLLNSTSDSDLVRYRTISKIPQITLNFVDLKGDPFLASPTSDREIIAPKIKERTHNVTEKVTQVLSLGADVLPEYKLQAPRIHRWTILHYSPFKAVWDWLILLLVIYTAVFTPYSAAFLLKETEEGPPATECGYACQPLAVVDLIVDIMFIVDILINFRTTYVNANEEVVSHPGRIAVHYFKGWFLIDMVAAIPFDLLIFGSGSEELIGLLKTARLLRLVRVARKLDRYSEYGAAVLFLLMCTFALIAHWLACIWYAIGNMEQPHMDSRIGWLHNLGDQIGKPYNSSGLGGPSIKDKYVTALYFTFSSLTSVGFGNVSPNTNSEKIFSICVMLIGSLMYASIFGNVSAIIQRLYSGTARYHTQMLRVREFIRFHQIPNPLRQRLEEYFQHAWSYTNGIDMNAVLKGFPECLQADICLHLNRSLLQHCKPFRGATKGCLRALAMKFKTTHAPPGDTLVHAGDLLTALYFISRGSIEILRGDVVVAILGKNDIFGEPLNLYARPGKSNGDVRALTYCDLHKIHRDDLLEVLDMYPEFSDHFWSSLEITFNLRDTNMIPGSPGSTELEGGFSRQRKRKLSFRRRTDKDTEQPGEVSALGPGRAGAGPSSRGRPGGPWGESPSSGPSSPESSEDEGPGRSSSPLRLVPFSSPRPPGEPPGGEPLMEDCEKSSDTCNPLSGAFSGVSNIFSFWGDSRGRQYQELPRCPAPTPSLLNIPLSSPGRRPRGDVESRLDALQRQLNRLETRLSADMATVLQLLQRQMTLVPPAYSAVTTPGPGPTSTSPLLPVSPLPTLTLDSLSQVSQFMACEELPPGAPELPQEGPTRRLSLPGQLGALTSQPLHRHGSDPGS
row,Compound,"hERG current change (%, negative = inhibition) at 1uM [%]"
1,CCOC(=O)c1c(S(=O)(=O)NCC(=O)N2CCN(c3ccccc3)CC2)c(C)n(C)c1C,6.76
2,Cc1cc(C)cc(NC(=S)NCc2ccc(F)cc2)c1,6.82
3,CCc1cccc(CC)c1NC(=S)NCCc1c(C)[nH]c2ccccc12,7.68
4,COc1cccc(CNC(=O)c2cc(=O)[nH]c3ccc(S(=O)(=O)N4CCOCC4)cc23)c1,15.3
5,CC(OC(=O)c1ccccc1Oc1ccccc1)C(=O)NC1CC1 (centres unmarked),13.8
6,COc1ccccc1C(=O)C1CCCN(C(=O)c2cccc(-n3cccn3)c2)C1 (centres unmarked),9.07
7,O=C(CNC(=O)c1ccc(Br)cc1)NCCc1nc2ccccc2[nH]1,1.53
8,NS(=O)(=O)c1ccc(CNC(=O)c2ccc(S(=O)(=O)C(F)F)cc2)cc1,6.17
9,CC(CCc1ccccc1)NC(=O)C1CCCN(c2nnc(-n3cccc3)s2)C1 (centres unmarked),-7.23
10,CC1CCN(C(=O)CSc2nnc3ccc(-c4cccnc4)nn23)CC1,-2.88
11,CCOC(=O)C1=C(C)OC(N)=C(C(=O)OC)C12C(=O)Nc1ccc(Br)cc12 (centres unmarked),14.6
12,CN(C)C(=O)COC(=O)[C@H](Cc1ccccc1)NC(=O)c1ccco1,12.3
13,Cc1ccc(S(=O)(=O)N(C)N=O)cc1,19.1
14,Cl.Nc1ccc(CCN2CCCC2)cc1,11.8
15,O=C(CSc1nc2ccsc2c(=O)n1Cc1ccc(C(=O)O)cc1)NCc1ccco1,5.71
16,Cc1ccc(S(=O)(=O)CC(=O)N2CCN(c3cccc(C(F)(F)F)c3)CC2)cc1,-8.8
17,COc1cc(/C=C/C(=O)N2C(=O)c3cccc(N)c3C2=O)cc(OC)c1OC,8.6
18,CCOc1cc(/C=N/NC(=O)COc2nc(C)cc(COC)c2C#N)ccc1O,1.99
19,COc1ccc(N2C(=O)CC(Sc3nc4c(cc3C#N)CCC4)C2=O)cc1 (centres unmarked),19.8
20,Cc1nc(C(=O)NC(C)C)nn1-c1cc(Cl)cc(Cl)c1,19.8
21,N/C(COc1cccc(C(F)(F)F)c1)=N\NC(=O)c1cccnc1Oc1ccccc1,6.91
22,O=C(CCc1nnc(-c2ccsc2)o1)NCc1ccccc1OC(F)(F)F,6.48
23,Cc1ccc(S(=O)(=O)NCCC(=O)NNC(=O)COc2ccccc2Cl)cc1C,5.56

row,Compound,"hERG current change (%, negative = inhibition) at 1uM [%]"
1,O=C(N/N=C/c1c(F)cccc1Cl)c1cc(C2CC2)[nH]n1,16.2
2,COc1ccc2[nH]c(=O)c(CN(CCCN3CCOCC3)C(=O)NCc3ccccc3)cc2c1,12
3,CS(=O)(=O)N1N=C(c2cccs2)CC1c1ccccc1 (centres unmarked),-2.23
4,COc1ccc(C(=O)Nc2cc(=O)[nH]c3ncnn23)cc1,2.56
5,Cc1cc(C)nc(/N=C2\NC(=O)CC(C(=O)O)N2c2ccc(Oc3ccccc3)cc2)n1 (centres unmarked),12.9
6,c1ccc(OCc2nn3c(-c4ccco4)nnc3s2)cc1,-11.9
7,COc1ccc2[nH]cc(C(=O)CN3CCCC(C)(C)C3)c2c1,-0.323
8,COc1cccc2c3c(c(C)nc12)CCN3c1ccccc1,-8.76
9,CCOc1ccccc1Oc1coc2cc(OCC(=O)O)ccc2c1=O,22.1
10,COc1ccc(OC)c(CN2CCN(C(=O)CNC(=O)c3ccc(C(C)(C)C)cc3)CC2)c1,-1.22
11,CCCCn1cc(C(C)(C)C)c(C#N)c1NC(C)=O,12.6
12,CCN(c1ccccc1)S(=O)(=O)c1ccc2ccccc2c1,14.6
13,COc1ccc(CC(=O)c2ccc(OC)c(OC)c2)cc1,5.35
14,COc1ccc(-c2[nH]ncc2CN2CCN(Cc3cccs3)CC2)c(F)c1,1.54
15,COC(=O)C1=C(c2ccc(C(C)=O)cc2)C[C@@H]2CC[C@H]1N2C(=O)N1CCOCC1,11.4
16,COc1ccccc1N1CCN(C(=O)c2cc(-c3ccc(C)cc3)on2)CC1,6.17
17,O=C(NCC1(N2CCCCC2)CCCCC1)C1CC(=O)N(c2ccc3c(c2)OCCO3)C1 (centres unmarked),14.3
18,CN(C)c1ccc(/C=C/C=C2/SC(=S)N(c3ccccc3)C2=O)cc1,13.9
19,O=C(O)c1cccc(NC(=O)c2ccc(Cl)c(S(=O)(=O)N3CCCCCC3)c2)c1,18.9
20,CC(C)(C)NC(=O)c1cccc(NC(=O)c2ccco2)c1,7.94
21,COc1cccc(NC(=S)Nc2cccc3ccccc23)c1,14
22,Cc1cc(C(=O)CCC(=O)Nc2ncccc2O)c(C)s1,5.56
23,O=C(Cn1c(CCCO)nc2ccccc21)Nc1ccccc1-c1ccccc1,11.2

row,Compound,"hERG current change (%, negative = inhibition) at 1uM [%]"
1,CC1(C)Cc2c(sc3nc(SCC(=O)N4CCOCC4)nc(N)c23)CO1,-2.97
2,O=C(O)c1ccc(NS(=O)(=O)c2cccc(C(=O)Nc3ccc(Br)cc3)c2)cc1,8.18
3,CCn1c(C)nc2cc(-c3nnc(-c4c(-c5ccccc5)noc4C)o3)ccc21,3.39
4,CC(NC(=O)C1CCC1)c1ccccc1 (centres unmarked),10.4
5,COC(=O)C(CC(=O)c1ccc(C)cc1)n1nc(C)cc1C (centres unmarked),12.9
6,CC(=O)Nc1ccc(NC(=O)C2CCCN(S(=O)(=O)c3ccc(Cl)cc3)C2)cc1 (centres unmarked),17
7,Cc1cccc(Nc2ncccc2C(=O)NCc2cccs2)c1C,-1.22
8,CN1C[C@@H]2C(c3ccc(C(F)(F)F)cc3)C3(c4ccccc4)CC2(C3)[C@H]1c1ccccc1 (some centres unmarked),8.58
9,CCN1C(=O)/C(=C/c2cn(C)nc2C)SC1=S,3.2
10,CCCC(=O)Nc1cccc(-c2cn3cccnc3n2)c1,5.74
11,O=C(Nc1ccc2c(c1)OCO2)C1CC1(Cl)Cl (centres unmarked),7.49
12,Cc1ccc(C(=O)Nc2nc3c(s2)CCCC3)o1,6.5
13,CCOC(=O)[C@H]1[C@H]2COc3ccc(C)cc3[C@@H]2N2C(=O)c3cc(Cl)ccc3NC(=O)[C@@]12C,7.62
14,O=C(CN1C(=O)C2CC=CCC2C1=O)Nc1nc2ccccc2s1 (centres unmarked),4.22
15,O=C(COC(=O)c1nc(Cl)ccc1Cl)Nc1ccc(Cl)cn1,9.36
16,CNS(=O)(=O)c1cccc(C(=O)OCC(=O)/C=C2/N(C)c3ccccc3C2(C)C)c1,20.6
17,Cc1ccc(O)c(C2=NCCNC(C(F)(F)C(F)F)=C2)c1,3.12
18,Cc1cccc(NC(=S)N(CCCN2CCOCC2)C(C)c2cc3ccccc3o2)c1C (centres unmarked),1.24
19,CN(C)C(=O)NC1C=CS(=O)(=O)C1 (centres unmarked),6.99
20,O=C(Nc1ccccc1C(=O)Nc1ccc2c(c1)OCO2)c1cccs1,5.03
21,Cc1c(Cl)c(C(=O)N2CCCC2)nn1C,11.3
22,O=C(c1ccc(Br)s1)N1CCN(Cc2ccc3c(c2)OCO3)CC1,-5.73
23,CCc1ccccc1N1C(=O)CC(Sc2nccc(C)n2)C1=O (centres unmarked),7.89

row,Compound,"hERG current change (%, negative = inhibition) at 1uM [%]"
1,Cc1ccccc1-n1nnnc1Sc1nnnn1-c1ccccc1,-2.15
2,CSc1ccc(/C=N/NC(=O)c2ccc(O)cc2)cc1,14.4
3,CCSc1nc2ccc(C)cc2cc1C#N,4.67
4,O=C(COC(=O)COc1ccccc1[N+](=O)[O-])NC1CCCCC1,-1.3
5,Cc1ccc2nc(-c3cccc(NS(C)(=O)=O)c3)cc(-c3ccccc3)c2c1,11.9
6,CS(=O)(=O)N1CCCC(C(=O)Nc2cccc(F)c2)C1 (centres unmarked),14
7,COc1cccc(OC)c1NC(=O)CN1CCC(NC(=O)c2cccc(F)c2)CC1,6.24
8,O=C(Nc1ccccc1C(=O)O)c1cccc(NS(=O)(=O)c2ccc(Br)cc2)c1,21.8
9,CC1=C(c2ccc(C)cc2)[N+](=O)C(C)(C)N1[O-],10.2
10,O=C(Nc1ccc(S(=O)(=O)N2CCCCC2)cc1)c1ccc(F)cc1,8.66
11,Cc1ccc(S(=O)(=O)NCc2csc(C)n2)cc1,12.4
12,CCN(CC)C(=O)c1cc(-c2ccc(Br)cc2)on1,1.22
13,CC(C)(C)n1nnnc1C(c1cccnc1)N1CCN(C(=O)c2ccco2)CC1 (centres unmarked),7.03
14,COc1cc(CN2CCCC(C(=O)N3CCc4ccccc4C3)C2)cc(OC)c1OC (centres unmarked),-23.1
15,CCOc1ccc2nc(C)cc(Nc3ccc4c(c3)OCCO4)c2c1.Cl,-47
16,CC1(C(O)(C#CCN2CCCCC2)c2ccccc2)CCCC1.Cl (centres unmarked),1.41
17,COc1ccc(CCNc2cc(C)[nH]c(=O)c2)cc1OC,18.8
18,COc1ccc(NC(=O)N2CCCC(CNS(=O)(=O)c3cccs3)C2)c(C)c1 (centres unmarked),14.2
19,C#CCNc1ccc(C(=O)OCC)cc1,5.76
20,O=C(CCc1ccccc1O)N/N=C/c1ccc(Sc2cccc3cccnc23)o1,16.9

# Source: article PMC4336329 (PLoS ONE, 2015)
